According to the supplement of paper PMC3724861:
This is one part of the list.

What follows are sequences tested on T1, Caupolican (Caup) homeodomain DNA-binding domain (assay: PBM E-score (8-mer, recovered from the published 9-mer minima) (E-score (dimensionless, -0.5 to 0.5)); Drosophila protein; higher = stronger relative binding preference, active = 0.31 or more).
T1 sequence: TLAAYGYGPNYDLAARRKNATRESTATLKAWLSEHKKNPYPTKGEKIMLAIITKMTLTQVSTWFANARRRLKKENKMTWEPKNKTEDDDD
Outline: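 An enrichment score, with higher meaning stronger, expresses relative binding preference for each short DNA word. The protein used was Caup's homeodomain DNA-binding domain (residues 214-303), produced by in vitro transcription and translation and tested at 100 nM on custom-designed protein binding microarrays. The 8-mer values were recovered from published 9-mer scores, each equal to the lower of its two constituent 8-mer scores.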

Sequence	PBM E-score
CTGTGGGC	inactive: -0.0536
AAACTTCC	inactive: -0.0959
GATATACC	inactive: 0.121
GATGTGAA	inactive: 0.139
TAGGAACA	inactive: 0.191
GTTCCCCA	inactive: -0.0823
CGTTTGAG	inactive: -0.00713
CCACACGA	inactive: -0.0269
TAAGCTCA	inactive: -0.0929
AAGCTCAG	inactive: -0.115
AAACGAAA	inactive: 0.051
CATAGCGC	inactive: 0.0107
CATAACGC	inactive: -0.00796
AGATATCA	≥ 0.162
GAACTTCC	inactive: -0.0592
GACCGGGA	inactive: -0.174
ATGGCAAT	inactive: 0.00905
CTAGCTAC	inactive: -0.00972
GATTTACC	inactive: 0.0896
GTAATTGA	inactive: 0.159
CCACCCGC	inactive: -0.16
ACACCACT	inactive: 0.204
GTTTGGGA	inactive: 0.0152
AACAAGCT	active: 0.312
CAAATTCA	inactive: -0.046

Sequence	PBM E-score
AATGTCCA	inactive: 0.251
CCTGACAC	inactive: 0.142
ACGCCCCG	inactive: -0.323
CGGCGCCA	inactive: -0.155
CAGAGCCG	inactive: -0.168
ACTAATGG	inactive: -0.0216
GATAGTGC	inactive: 0.00182
CATCCCAC	inactive: -0.133
GATTCAAA	inactive: 0.00644
GAGTTATC	inactive: 0.0344
CACCTTTA	inactive: -0.0576
AGTGTGTA	inactive: 0.211
AAGAGGAG	inactive: -0.112
ATACCTAG	inactive: 0.133
CGAATCAG	inactive: 0.0329
AGTACAGA	inactive: 0.138
TACCGGGA	inactive: -0.026
AACATTAA	inactive: 0.25
ACACTCGT	inactive: 0.0679
CTCATCTA	inactive: 0.0119
CGCGATTC	inactive: -0.0903
AGATCACC	inactive: 0.0519
ACCGCATC	inactive: -0.12
TACTACTA	≥ 0.29
CCACTGAG	inactive: -0.183

Sequence	PBM E-score
GATCCAAA	inactive: 0.118
AGCACTGG	inactive: -0.124
AGTCCGAG	inactive: -0.0228
ACAACCAT	inactive: 0.298
AGCTCACC	inactive: -0.191
CAAATACA	inactive: 0.245
TAGAGAAA	inactive: -0.00911
GCGATAGC	inactive: -0.045
CTAATTTC	inactive: 0.051
CTGTGGGA	inactive: -0.126
CACACGGG	inactive: -0.0095
AAGCAAAA	inactive: 0.0629
GCTTCATA	inactive: -0.0776
CTCGAAAC	inactive: 0.0396
CCGCCCCC	inactive: -0.389
CAGCTCCA	inactive: -0.0944
AATACAAG	active: 0.346
CAAACAGG	inactive: 0.169
CAGCGGGC	inactive: -0.237
AAAAACTT	inactive: 0.0649
AGTTTGGC	inactive: -0.0592
TCAAGACA	inactive: 0.121
CCAAGTCA	inactive: -0.0457
AATAAAAG	inactive: -0.0307
AATCATGA	inactive: 0.164

Sequence	PBM E-score
CCTGCTCC	inactive: -0.0699
TCGCACGA	inactive: 0.0172
GGGACTCA	inactive: -0.214
CGGGCCCC	inactive: -0.287
AGGCGCCA	inactive: -0.174
GGTGACAC	inactive: 0.172
CCGAGGGA	inactive: -0.187
ACCAGATG	inactive: 0.121
CCAGACCC	inactive: -0.206
CAGATTCG	inactive: 0.00506
AACTCGTA	inactive: 0.163
CGCTCTGC	inactive: -0.177
CATAGCGG	inactive: -0.174
ATTTCCTC	inactive: -0.0253
ATCATGGA	inactive: 0.00242
GCCGCGGC	inactive: -0.324
AACGCACA	inactive: 0.0456
CGAGCAGA	inactive: -0.116
AAGTTTGC	inactive: 0.0221
CGAGAAAG	inactive: -0.0642
AACTTCCC	inactive: -0.0836
GCGACCGA	inactive: -0.108
CTTCTGTA	inactive: 0.115
CAGTTTCG	inactive: -0.0432
GGTCCGAC	inactive: -0.0703

Sequence	PBM E-score
AATGGAGC	inactive: -0.0674
GGGTTAAA	inactive: 0.00529
TAACCGCA	inactive: 0.0101
AGGAATTA	≥ 0.125
CGATCAAA	inactive: -0.00998
CCTCCCCG	inactive: -0.23
AGAAGAGA	inactive: -0.078
ATTTTTCA	inactive: 0.0919
AAGAAGTC	inactive: -0.0128
CATGCGCG	inactive: -0.0216
ATCGATCC	inactive: 0.00323
CTACGAGA	inactive: 0.00553
ATGCTTGG	inactive: 0.0118
AGATGCAT	inactive: 0.0765
CAACTCAG	inactive: -0.105
GGATATTA	inactive: 0.117
ACCTTACG	inactive: -0.047
CCGTGCGC	inactive: -0.175
AGGAGACC	inactive: -0.207
ATGGCGCG	inactive: -0.163
GCAGCCCC	inactive: -0.268
CGTGTGCC	inactive: -0.143
ATGGCTAG	inactive: -0.0196
ATAGCTTA	inactive: 0.0325
AACGTCGG	inactive: -0.0685

Sequence	PBM E-score
CATGATGC	inactive: 0.0535
GGTAAGAA	inactive: 0.0246
ATCCTCTA	inactive: -0.00764
GCTAGCCC	inactive: -0.215
TCGACAAA	inactive: 0.159
ATTTTCAG	inactive: 0.105
CTCCCCAC	inactive: -0.275
ATTCGTAG	inactive: 0.0535
CGAGGCTC	inactive: -0.207
CACGCGGG	inactive: -0.105
GTAAACCA	inactive: 0.119
CTAGCGGA	inactive: -0.144
AACCGAGA	inactive: -0.0191
AGTAATGC	inactive: 0.0573
AGGTACGC	inactive: -0.0652
CCTTATCG	inactive: 0.0629
GCTTCGCC	inactive: -0.257
AGCCGAAT	inactive: -0.0412
ACGTATTC	inactive: 0.0684
AACGCTGG	inactive: -0.0926
AAGATAGA	inactive: 0.0418
CAGGTATA	inactive: 0.0792
GGCCCCAA	inactive: -0.297
CGCTAGGC	inactive: -0.251
CATATCAA	inactive: 0.174

Sequence	PBM E-score
TACGTACA	inactive: 0.286
AAGTCAGG	inactive: -0.109
ACCAGCTG	inactive: -0.0781
ACTTGCGG	inactive: -0.0926
ACTGCTGC	inactive: -0.0981
GTCGGAGA	inactive: -0.0896
CTTGACGC	inactive: -0.178
TCCCCTAA	inactive: -0.0939
TCGCAAGA	inactive: -0.0509
GTGCAAAA	inactive: 0.0367
GAACCACC	inactive: 0.0103
AGTCAGCG	inactive: -0.144
ATCCAGAG	inactive: 0.0191
TCCAGGAA	inactive: -0.0556
CCATAGGA	inactive: 0.00212
AAATTCAG	inactive: 0.0174
CTTTTGCA	inactive: -0.00815
CACCCAAA	inactive: -0.042
CTGCGTAA	inactive: -0.0276
ACCAATAA	inactive: 0.0667
CATTGCAC	inactive: 0.135
CAATTCCC	inactive: 0.0386
TGCGTCAA	inactive: -0.0751
TCCGACGA	≥ 0.0504
GATTGTCA	inactive: 0.13

Sequence	PBM E-score
ATAACCCA	inactive: -0.0198
AGAGAGAG	inactive: -0.0528
CCGTTGGA	inactive: -0.133
AACCTAGC	inactive: -0.0443
CGGAGGGC	inactive: -0.286
CTTCAATC	inactive: -0.028
ACATTAAT	inactive: 0.232
ACCCTCGA	inactive: -0.0476
AAAATGAC	inactive: 0.0699
AAGCTGTA	≥ 0.166
ATTGAGCA	≥ 0.103
AGAACCCT	inactive: -0.163
CTCCTAGA	inactive: -0.0555
CAAATAGA	inactive: 0.127
AGCTGTTA	inactive: 0.151
GTACAAGA	active: 0.418
CTATTGCA	inactive: 0.113
ACCTGTGG	inactive: -0.146
ACATGACT	active: 0.374
CGCAGTCA	inactive: -0.0409
ACCGTCGC	inactive: -0.151
ACGCATAC	inactive: 0.0922
CAGTTCCC	inactive: -0.168
CAGTTGGG	inactive: -0.107
ATAATCGA	inactive: 0.0683

Sequence	PBM E-score
ACTTCCGC	inactive: -0.0678
AGAGTGGG	inactive: -0.131
CGCTGGAC	inactive: -0.13
AGTTTCAC	inactive: 0.0192
CACCAGTG	inactive: 0.0581
CCATCGAA	inactive: -0.067
CAGACTAG	inactive: 0.0926
CTCAGGAG	inactive: -0.144
ACGGCTGC	inactive: -0.0989
CAAGTATA	inactive: 0.0844
CATACGGG	inactive: -0.0993
CACGGAGG	inactive: -0.0286
ACTGCGCG	inactive: -0.148
AAATACTG	inactive: 0.0706
AGCCGTCG	inactive: -0.122
AGGGAAGA	inactive: -0.0602
ATAACGAT	inactive: 0.111
AGGGAATC	inactive: 0.0178
CATGTAGG	active: 0.356
ATGGATAA	inactive: 0.124
TTTAAAAA	inactive: 0.00517
GACTATTA	inactive: 0.0719
